Consider 37 compounds from PubChem BioAssay (NCATS).

The list shows a part of the results. Shown are side measurements of this screen, not its main read-out; they come without a call. Compounds called inactive in the main read-out are mostly missing here. Potencies come from curve fits of mixed quality, noted in brackets. Square brackets hold non-standard residues; d marks the D form. Side chains are listed from the residue outwards. Peptide text beside a SMILES is read from it. * marks the point of attachment. X1 = CCC(C)C(N)C1=NC(C(=O)*)CS1; Orn = NCCC[CH](N)C(=O)O

The assay can be described thus: qHTS Assay for Lipid Storage Modulators (AID 1519). Particulars: Drosophila S3 cells, BODIPY lipid droplet/cell ratio, laser cytometry, cells loaded with oleic acid. Put shortly:
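Cells seeded at 5,000 per well were treated with compounds over a concentration series and loaded with oleic acid (400 uM, as added). Lipid droplet fluorescence (488 nm excitation, 500-530 nm channel) was read by laser-scanning cytometry and normalized to 20 uM Triacsin C.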

[1] abbreviates: measured here: cell count channel max response.
Where [2] appears, read: measured here: cell number channel AC50.
Where [3] appears, read: measured here: lipid (BODIPY) channel AC50.
Where [4] appears, read: measured here: lipid channel max response.
Tags describe the fitted curve by direction and shape.

Turning to `O=c1cc(-c2cccc(O)c2)oc2c(O)c(O)ccc12`, the max response was 32.4% under setting [1] and 56.4% under setting [4]. For the same compound, the AC50 runs as follows: under setting [2], 20000 nM [rising, partial curve, poor fit]; under setting [3], 17800 nM [rising, partial curve, poor fit].
Turning to `CCCCCCN(CCCCCC)C(=O)Cc1c(-c2ccc(Cl)cc2)[nH]c2ccc(Cl)cc12`, the max response by setting is: under setting [1], 83.7%; under setting [4], 115%. Besides, the AC50 under setting [2] was 12600 nM [rising, partial curve] and the AC50 under setting [3] was 12600 nM [rising, partial curve].
For the compound `C[C@@H](CCCCC(=O)Nc1ccc(C(F)(F)F)cc1)NCCc1cnc[nH]1`, the max response came out at 81.6% under setting [1] and 102% under setting [4]. Further, the AC50 by setting is: under setting [2], 31600 nM [rising, partial curve]; under setting [3], 31600 nM [rising, partial curve].
`COc1ccc2[nH]cc(CCNc3ncncc3-c3ccccc3C(F)(F)F)c2c1`: the max response runs as follows: under setting [1], 18.5%; under setting [4], 21.9%. Also, the AC50 is 2510 nM [rising, partial curve] under setting [2] and 2820 nM [rising, partial curve] under setting [3].
With `Cc1cnc(CNc2ncncc2-c2ccc3c(c2)OCO3)cn1`, the max response was 43.4% under setting [1] and 54.8% under setting [4]. The AC50 under setting [2] was 200 nM [rising, full curve, poor fit] and the AC50 under setting [3] is 178 nM [rising, full curve, poor fit].
On to `Cn1cc(-c2nc3cncnc3n(Cc3ccccc3Cl)c2=O)c2ccccc21`, for which the max response stood at 60.9% under setting [1] and 63.7% under setting [4]. Further, the AC50 under setting [2] was 7080 nM [rising, partial curve, poor fit] and the AC50 under setting [3] is 5010 nM [rising, partial curve, poor fit].
For `COc1ccc(-c2nc3cnc(N(C)C)nc3n(C)c2=O)cc1`, the max response under setting [1] stood at 21.3% and the max response under setting [4] worked out at 28.6%. Further, the AC50 under setting [2] was 3160 nM [rising, full curve, poor fit] and the AC50 under setting [3] was 2820 nM [rising, full curve, poor fit].
Turning to `Cc1cnc(CNc2nc(-c3ccccc3C)nc3ccccc23)cn1`, the max response under setting [1] worked out at 34.8% and the max response under setting [4] amounted to 45.7%. For the same compound, the AC50 is 447 nM [rising, full curve] under setting [2] and 1000 nM [rising, full curve, poor fit] under setting [3].
Turning to `Cn1c(=O)c(CCc2ccccc2)nc2cnc(Oc3ccccc3)nc21`, the max response runs as follows: under setting [1], 16.6%; under setting [4], 22.6%. In addition, the AC50 under setting [2] was 1780 nM [rising, partial curve] and the AC50 under setting [3] is 794 nM [rising, single point].
Turning to `O=S(=O)(c1ccccc1)N1CCC2(CCCN(Cc3ccccc3)C2)CC1`, the max response under setting [1] was 16.4% and the max response under setting [4] amounted to 10.6%. Besides, the AC50 under setting [2] was 1260 nM [rising, full curve] and the AC50 under setting [3] is 891 nM [rising, full curve, poor fit].
For `COc1ccc(CNc2nc(-c3cccc(NS(C)(=O)=O)c3)nc3ccccc23)c(OC)c1`, the max response came out at 23.3% under setting [1] and 30.7% under setting [4]. The AC50 under setting [2] was 141 nM [rising, full curve, poor fit] and the AC50 under setting [3] was 141 nM [rising, full curve].
On to `O=c1c(-c2ccc(F)c(F)c2)nc2cncnc2n1Cc1ccccc1`, for which the max response is, setting by setting: under setting [1], 20.4%; under setting [4], 30%. Moreover, the AC50 runs as follows: under setting [2], 70.8 nM [rising, full curve, poor fit]; under setting [3], 63.1 nM [rising, full curve].
In the case of `COc1ccc(-c2nc3cnc(N(C)C)nc3n(Cc3cccs3)c2=O)cc1`, the max response under setting [1] came out at 39% and the max response under setting [4] was determined as 43.7%. Further, the AC50 was 17800 nM [rising, partial curve, poor fit] under setting [2] and 17800 nM [rising, partial curve, poor fit] under setting [3].
In the case of `CCNc1ncc2nc(-c3cc(F)cc(F)c3)c(=O)n(CCOC)c2n1`, the max response runs as follows: under setting [1], 46.5%; under setting [4], 38.5%. In addition, the half-maximal activity concentration (AC50) under setting [2] was 316 nM [rising, full curve] and the AC50 under setting [3] is 355 nM [rising, full curve].
Consider `COc1ccccc1-c1cc(Nc2ccc(F)cc2)ncn1`, for which the max response is 15.8% under setting [1] and 19.6% under setting [4]. In addition, the AC50 is, setting by setting: under setting [2], 794 nM [rising, full curve, poor fit]; under setting [3], 891 nM [rising, full curve, poor fit].
For the compound `CN(C)C(=O)c1ccc(-c2ccc3ncnc(Nc4ccccc4)c3c2)cc1`, the max response reads like this: under setting [1], 14.1%; under setting [4], 19.4%. Moreover, the AC50 is, setting by setting: under setting [2], 1780 nM [rising, partial curve, poor fit]; under setting [3], 1780 nM [rising, full curve, poor fit].
Regarding `COc1ccc(-n2c(=O)c(-c3cc(F)cc(F)c3)nc3cncnc32)cc1`, the max response is, setting by setting: under setting [1], 36.1%; under setting [4], 38.7%. The AC50 was 631 nM [rising, full curve] under setting [2] and 631 nM [rising, full curve] under setting [3].
For the compound `O=C(c1cccc(F)c1)N1CCC[C@@]2(CCN(Cc3ccncc3)C2)C1`, the max response is 11.6% under setting [1] and 15.8% under setting [4]. For the same compound, the AC50 under setting [2] is 63.1 nM [rising, full curve, poor fit] and the AC50 under setting [3] was 50.1 nM [rising, full curve, poor fit].
For the compound `COc1ncc2nc(-c3ccccc3)c(=O)n(CCc3ccccc3)c2n1`, the max response reads like this: under setting [1], 15.6%; under setting [4], 16.2%. Further, the AC50 by setting is: under setting [2], 141 nM [rising, full curve, poor fit]; under setting [3], 126 nM [rising, full curve, poor fit].
As for `NCCOB(c1ccccc1)c1ccccc1`, the max response is, setting by setting: under setting [1], 44.4%; under setting [4], 26.2%. In addition, the AC50 under setting [2] was 1780 nM [rising, full curve] and the AC50 under setting [3] is 1000 nM [rising, full curve, poor fit].
Regarding `CC1(C)SC2C(NC(=O)C(C(=O)O)c3ccccc3)C(=O)N2C1C(=O)O` (stereo not drawn), the max response under setting [1] turned out to be 38.5% and the max response under setting [4] amounted to 63.8%. The AC50 under setting [2] was 39800 nM [rising, single point] and the AC50 under setting [3] was 39800 nM [rising, single point].
Turning to `COc1ccc2[nH]cc(CCNc3ncncc3-c3ccccc3Cl)c2c1`, the max response was found to be 12.6% under setting [1] and 13.2% under setting [4]. Moreover, the AC50 under setting [2] is 2510 nM [rising, partial curve, poor fit] and the AC50 under setting [3] is 1580 nM [rising, partial curve, poor fit].
Regarding `O=C(c1cc(C(F)(F)F)cc(C(F)(F)F)c1)N1CCC2(CCCN(c3ncccn3)C2)CC1`, the max response by setting is: under setting [1], 11%; under setting [4], 13%. Moreover, the AC50 under setting [2] was 1780 nM [rising, full curve, poor fit] and the AC50 under setting [3] was 1260 nM [rising, partial curve].
`COc1ncc2nc(-c3ccccc3)c(=O)n(CCC#N)c2n1`: the max response under setting [1] stood at 44% and the max response under setting [4] is 52%. In addition, the AC50 was 1780 nM [rising, full curve] under setting [2] and 1260 nM [rising, full curve] under setting [3].
In the case of `O=S(=O)(c1ccccc1)N1CCC[C@@]2(CCN(c3cccc(-c4ccccc4)c3)C2)C1`, the max response under setting [1] stood at 30.7% and the max response under setting [4] stood at 32.4%. Also, the AC50 is, setting by setting: under setting [2], 35.5 nM [rising, full curve]; under setting [3], 25.1 nM [rising, full curve, poor fit].
Consider `CS(=O)(=O)Nc1cccc(-c2cc(Nc3ccccc3)ncn2)c1`, for which the max response reads like this: under setting [1], 21.6%; under setting [4], 24.4%. For the same compound, the AC50 runs as follows: under setting [2], 63.1 nM [rising, full curve, poor fit]; under setting [3], 178 nM [rising, full curve].
`CN(C)C(=O)c1ccc(-c2nccc(NCc3ccccc3)n2)cc1`: the max response runs as follows: under setting [1], 9.72%; under setting [4], 14.7%. Also, the concentration at half-maximal activity (AC50) is, setting by setting: under setting [2], 100 nM [rising, full curve, poor fit]; under setting [3], 141 nM [rising, full curve, poor fit].
Consider `CCCCN1CCC[C@@H]1CNC(=O)c1cc(C#N)c2ccccc2c1OC`, for which the max response reads like this: under setting [1], 110%; under setting [4], 138%. Besides, the AC50 reads like this: under setting [2], 7940 nM [rising, partial curve]; under setting [3], 8910 nM [rising, partial curve].
Regarding `CC1(C)C(=O)NC2=C1C(=O)C(=O)c1ccccc12`, the max response by setting is: under setting [1], 56.9%; under setting [4], 53.1%. Also, the AC50 was 28200 nM [rising, partial curve, poor fit] under setting [2] and 28200 nM [rising, partial curve, poor fit] under setting [3].
Regarding `Clc1ccccc1-c1cc(NCc2cccnc2)ncn1`, the max response is, setting by setting: under setting [1], 28.4%; under setting [4], 41%. In addition, the AC50 under setting [2] was 3550 nM [rising, full curve, poor fit] and the AC50 under setting [3] is 3550 nM [rising, full curve].
Turning to `CNc1ncnc2ccc(-c3ccccc3C#N)cc12`, the max response under setting [1] was found to be 33.3% and the max response under setting [4] was found to be 41.7%. Also, the AC50 is, setting by setting: under setting [2], 1120 nM [rising, partial curve, poor fit]; under setting [3], 282 nM [rising, partial curve, poor fit].
Consider `CC(=O)C1=C(O)C=C2Oc3c(C(C)=O)c(O)c(C)c(O)c3[C@]2(C)C1=O`, for which the max response is, setting by setting: under setting [1], 80.6%; under setting [4], 103%. In addition, the AC50 is, setting by setting: under setting [2], 35500 nM [rising, partial curve, poor fit]; under setting [3], 35500 nM [rising, partial curve, poor fit].
`COc1ncc2nc(-c3ccccc3)c(=O)n(Cc3cccs3)c2n1`: the max response under setting [1] was 9.18% and the max response under setting [4] turned out to be 18.2%. Besides, the AC50 runs as follows: under setting [2], 3550 nM [rising, partial curve]; under setting [3], 3550 nM [rising, partial curve].
Consider `Cc1ccc(=O)n(-c2ccccc2)c1`, for which the max response was -30.5% under setting [1] and -30.8% under setting [4]. Moreover, the AC50 under setting [2] was 3160 nM [falling, full curve, poor fit] and the AC50 under setting [3] was 3160 nM [falling, full curve, poor fit].
For `O=C(c1ccncc1)N1CCC2(CCCN(Cc3ccccc3)C2)CC1`, the max response runs as follows: under setting [1], 30%; under setting [4], 38.6%. Further, the AC50 was 708 nM [rising, full curve] under setting [2] and 562 nM [rising, full curve, poor fit] under setting [3].
Consider `N#CCCn1c(=O)c(-c2ccc(Cl)cc2)nc2cnc(Nc3ccccc3)nc21`, for which the max response runs as follows: under setting [1], 58.1%; under setting [4], -17.8%. The AC50 under setting [2] is 708 nM [rising, partial curve] and the AC50 under setting [3] was 44.7 nM [rising, full curve, poor fit].
`CCC(C)C(N)C1=NC(C(=O)NC(CC(C)C)C(=O)NC(CCC(=O)O)C(=O)NC(C(=O)NCCCCC2NC(=O)C(CC(N)=O)NC(=O)C(CC(=O)O)NC(=O)C(Cc3cnc[nH]3)NC(=O)C(Cc3ccccc3)NC(=O)C(C(C)CC)NC(=O)C(CCCN)NC2=O)C(C)CC)CS1` (stereo not drawn) (cyclo(DNK([Ile-Glu-Leu-X1])[Orn]IFH); configuration not given here): the max response under setting [1] amounted to 32.7% and the max response under setting [4] amounted to 43.1%. The AC50 under setting [2] is 20000 nM [rising, partial curve] and the AC50 under setting [3] is 31600 nM [rising, single point].
